From PubChem BioAssay AID588591 (National Center for Advancing Translational Sciences (NCATS), 2011)
Among all 390,000 compounds or so, about 4,700 (1.2%) were called active. Inconclusive results, whose numbers are uncertain, are shown with a selection of clear calls. The call rests on the fitted dose curve; in most records, active means well fitted inhibition curve with a large enough effect; inconclusive means small, poorly fitted or top-dose-only effect, or another doubt; inactive means no such curve, though single readings can be large or run the other way. A potency beside an inconclusive call is a rough fit, not a confirmed value.

Biological target: DNA polymerase eta (Homo sapiens) (UniProt Q9Y253)
Assay: qHTS for Inhibitors of Polymerase Eta
Settings: recombinant Pol eta, fluorescent DNA replication assay; series mostly up to 114 µM; activity change, negative = inhibition: at the top concentration
How it was run: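 Pol eta (10 nM) was preincubated with compounds for 15 min at room temperature, after which fluorescent replication substrate (50 nM final) was added to start the reaction. Fluorescence was read kinetically at 0 and 10 min.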
On the % scale 0 is the no-effect control and ±100 the full control effect; potency means the concentration at half of the fitted maximal effect; tags describe the fitted curve by direction and shape.

Chain of UniProt Q9Y253 (Q9Y253 whole entry, looked up): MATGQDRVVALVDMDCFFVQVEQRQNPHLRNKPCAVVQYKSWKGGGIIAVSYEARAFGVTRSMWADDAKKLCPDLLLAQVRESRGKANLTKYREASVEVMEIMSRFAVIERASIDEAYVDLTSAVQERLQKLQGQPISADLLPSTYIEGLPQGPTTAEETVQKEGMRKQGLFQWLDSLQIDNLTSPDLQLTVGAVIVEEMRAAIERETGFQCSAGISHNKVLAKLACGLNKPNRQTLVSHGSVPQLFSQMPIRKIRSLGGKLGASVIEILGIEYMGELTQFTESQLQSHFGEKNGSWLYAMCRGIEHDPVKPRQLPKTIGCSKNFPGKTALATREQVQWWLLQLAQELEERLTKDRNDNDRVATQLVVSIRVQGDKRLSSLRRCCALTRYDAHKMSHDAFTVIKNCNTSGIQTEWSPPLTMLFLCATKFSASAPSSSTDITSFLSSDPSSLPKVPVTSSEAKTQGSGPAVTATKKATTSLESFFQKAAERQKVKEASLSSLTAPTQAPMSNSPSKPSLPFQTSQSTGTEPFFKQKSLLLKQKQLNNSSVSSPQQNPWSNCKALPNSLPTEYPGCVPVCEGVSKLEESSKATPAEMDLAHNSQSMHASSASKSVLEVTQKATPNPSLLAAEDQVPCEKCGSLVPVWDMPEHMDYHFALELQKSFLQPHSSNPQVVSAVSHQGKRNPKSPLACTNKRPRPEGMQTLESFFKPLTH

Row | SMILES | Potency | activity change, negative = inhibition
1 | CCN(CCCNC(=O)c1cc2c(=O)n(CC)c3ccccc3c2s1)c1cccc(C)c1 | inconclusive: 39.8 µM [inhibitor, partial curve, poor fit] | 
2 | Cc1cc(N(C)NC(=S)Nc2ccccc2)nc(C)n1 |  | inactive: -18%
3 | COc1ccccc1NC(=O)Cn1c(=O)n(Cc2ccco2)c(=O)c2oc3ccccc3c21 |  | inactive: 2.99%
4 | COc1cc(/C=C(/C#N)C(=O)Nc2ccccc2)c(Br)cc1OCc1ccc(C(=O)O)cc1 | active: 79.4 µM | 
5 | CCN(CC)S(=O)(=O)c1ccc2[nH]c(=O)c3ccccc3c2c1 | inconclusive: 79.4 µM [inhibitor, partial curve] | 
6 | COc1ccc(CCNC(=O)Cc2c(Cl)cccc2Cl)cc1 |  | inactive: -9.97%
7 | CCCc1nn2c(=O)c(C(c3cccc(Cl)c3)c3c(O)nc4sc(CCC)nn4c3=O)c(O)nc2s1 | inconclusive: 35.5 µM [inhibitor, single point] | 
8 | COc1cccc(NC(=O)CSc2nc3ccc(NC(=O)c4ccco4)cc3s2)c1 | inconclusive: 100 µM [inhibitor, partial curve, poor fit] | 
9 | COc1cccc(NC(=O)CN(C)C(=O)/C=C/c2cn(Cc3ccccc3)nc2-c2cccnc2)c1 | inconclusive: 100 µM [inhibitor, partial curve, poor fit] | 
10 | Cc1cc(OCCCSc2nc(-c3ccc(C(C)(C)C)cc3)nc3cc(=O)[nH]n23)ccc1Cl | active: 79.4 µM | 
11 | COc1cccc(CNC(=O)CC(c2ccc(F)cc2)N2Cc3ccccc3C2=O)c1 (centres undefined) |  | inactive: 11.1%
12 | COc1cc(/C=C2\SC(=S)N(NC(=O)c3ccc(O)cc3)C2=O)ccc1O | inconclusive: 56.2 µM [inhibitor, partial curve] | 
13 | O=C(NC(=S)Nc1c(Cl)ccc2nsnc12)c1ccccc1F |  | inactive: -12%
14 | O=S(=O)(Nc1nc2ccccc2nc1NCc1ccco1)c1ccc(Cl)cc1 | inconclusive: 28.2 µM [inhibitor, partial curve] | 
15 | O=C1CCN(CCc2ccccc2)CCN1[C@H](CSc1ccc(Br)cc1)c1ccccc1 | inconclusive: 79.4 µM [inhibitor, partial curve, poor fit] | 
16 | Cc1ccc(Nc2cc(C)c(C#N)c3nc4ccccc4n23)cc1Cl |  | inactive: 0.0621%
17 | O=C(CSc1nc(-c2ccccc2)[nH]c1-c1ccccc1)Nc1ccc2c(c1)OCCO2 | inconclusive: 79.4 µM [inhibitor, partial curve, poor fit] | 
18 | Cc1c(-c2ccnc3cc(C(=O)O)nn23)cnn1C | inconclusive: 35.5 µM [inhibitor, partial curve, poor fit] | 
19 | COc1ccc2cc(C(=O)N/N=C/c3cc(OC)c(OC)c(OC)c3)[nH]c2c1 | inconclusive: 44.7 µM [inhibitor, partial curve] | 
20 | Cn1cnnc1SCC(=O)Nc1ccccc1C(=O)NC1CC1 | inconclusive: 12.6 µM [inhibitor, partial curve] | 

Row | SMILES | Potency | activity change, negative = inhibition
21 | Cc1ccc(S(=O)(=O)N(CC(=O)O)Cc2ccco2)cc1 | active: 17.8 µM | 
22 | COc1ccc(/C=C\c2cc(OC)c(OC)cc2CC[N+](C)(C)C)cc1OC | inconclusive: 89.1 µM [inhibitor, partial curve, poor fit] | 
23 | Cc1nn(CC2CCCCC2)c(N)c1-c1ccccc1 | inconclusive: 89.1 µM [inhibitor, partial curve, poor fit] | 
24 | O=C(CN1CCSc2ccccc21)N1CCN(c2cccc(Cl)c2)CC1 |  | inactive: -14.2%
25 | Cc1ccc(Cc2nc3ccccc3nc2SCC(=O)Nc2cccc(C(F)(F)F)c2)cc1 | inconclusive: 89.1 µM [inhibitor, partial curve, poor fit] | 
26 | CCOC(=O)C1=C(C)N=c2s/c(=C/c3ccc(OCC(=O)O)cc3)c(=O)n2C1c1ccc(F)cc1 (centres undefined) | inconclusive: 56.2 µM [inhibitor, partial curve, poor fit] | 
27 | CNC(=O)C(=O)NCC1OCCCN1S(=O)(=O)c1ccc2c(c1)OCCO2 (centres undefined) | inconclusive: 112 µM [inhibitor, partial curve, poor fit] | 
28 | O=C1CCC(C(=O)OCc2cc(=O)oc3ccc4ccccc4c23)=NN1 | inconclusive: 79.4 µM [inhibitor, partial curve] | 
29 | COc1ccc(-c2ccc(CN3C(C)C(=O)N(Cc4cn(CCC5OCCO5)nn4)CCS3(=O)=O)cc2)cc1 (centres undefined) | active: 28.2 µM | 
30 | CC1CCN(C(=O)Cn2cc(SCc3cccc(F)c3)c3ccccc32)CC1 |  | inactive: 2.83%
31 | O=C(CCCn1c(SCC(=O)c2ccc(O)c(O)c2)nc2ccccc2c1=O)NCC1CCCO1 (centres undefined) | active: 20 µM | 
32 | O=C1[C@H]2[C@@H](c3ccccc3)N[C@]3(CCCN(Cc4ccc(C(F)(F)F)cc4)C3=O)[C@H]2C(=O)N1Cc1ccccc1 | inconclusive: 44.7 µM [inhibitor, partial curve, poor fit] | 
33 | CCC(C)Sc1ccc([C@@H]2[C@@H]3C(=O)N(C)C(=O)[C@@H]3[C@]3(C(=O)OC)CCCCN23)cc1OC (some centres undefined) | inconclusive: 70.8 µM [inhibitor, partial curve, poor fit] | 
34 | COc1cc([C@@H]2Oc3cc(C4Oc5cc(O)cc(O)c5C(=O)[C@H]4O)ccc3O[C@H]2CO)ccc1O (some centres undefined) | inconclusive: 56.2 µM [inhibitor, partial curve, poor fit] | 
35 | C[C@H](O)[C@@H]1C(=O)N2CCc3c([nH]c4ccccc34)[C@@H]2C[C@@H]1N(C)Cc1ccc(Cl)cc1 | inconclusive: 3.55 µM [inhibitor, partial curve, poor fit] | 
36 | COc1ccc(C(=O)CSc2nnc(C3CCCCC3)n2N)c(OC)c1 | inconclusive: 15.8 µM [inhibitor, partial curve, poor fit] | 
37 | Cc1ccc(C(=O)c2coc3cc([N+](=O)[O-])c(O)c([N+](=O)[O-])c23)cc1 | active: 20 µM | 
38 | Cc1cc(NC(=O)CON=C(N)CC(=O)Nc2ccccc2Cl)ccc1Br | inconclusive: 39.8 µM [inhibitor, partial curve, poor fit] | 
39 | COc1cc(/C=N\Nc2nc(-c3ccc(C)cc3)c(NC(C)=O)s2)ccc1O | inconclusive: 79.4 µM [inhibitor, partial curve, poor fit] | 
